Laboratory results taken from PubChem BioAssay AID1745853 (National Center for Advancing Translational Sciences (NCATS), 2022).
Some of the results follow. Shown are side measurements of this screen, not its main read-out; they come without a call.

Assays:
Assay in all cases: Primary Screen for Target Class Profiling of Small Molecule Inhibitors of Methyltransferases
[1] = molecular target: Glycine N-methyltransferase (Homo sapiens) (UniProt Q14749); details: purified enzyme, MTase-Glo SAH luminescence; measured here: GNMT inhibition; at 40 µM; stronger effect = lower value
In short: (§1)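 Each enzyme was reacted with SAM and its substrate, with compounds tested once at 40 uM; SAH formed was read by MTase-Glo luminescence.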

[2] = molecular target: Guanidinoacetate N-methyltransferase (Homo sapiens) (UniProt Q14353); details: purified enzyme, MTase-Glo SAH luminescence; measured here: GAMT inhibition; at 40 µM; stronger effect = lower value
In short: as §1

[3] = molecular target: Histamine N-methyltransferase (Homo sapiens) (UniProt P50135); details: purified enzyme, MTase-Glo SAH luminescence; measured here: HNMT inhibition; at 40 µM; stronger effect = lower value
In short: as §1

[4] = molecular target: Nicotinamide N-methyltransferase (Homo sapiens) (UniProt P40261); details: purified enzyme, MTase-Glo SAH luminescence; measured here: NNMT inhibition; at 40 µM; stronger effect = lower value
In short: as §1

[5] = molecular target: Phenylethanolamine N-methyltransferase (Homo sapiens) (UniProt P11086); details: purified enzyme, MTase-Glo SAH luminescence; measured here: PNMT inhibition; at 40 µM; stronger effect = lower value
In short: as §1
On the % scale 0 is the no-effect control and ±100 the full control effect.

Row | Compound | activity change, negative = inhibition [1] [%] | activity change, negative = inhibition [2] [%] | activity change, negative = inhibition [3] [%] | activity change, negative = inhibition [4] [%] | activity change, negative = inhibition [5] [%]
1 | C/C=C(\C)C(=O)OCC1OC(OC2OC(COC(=O)/C(C)=C/C)C(OC3OC(CO)C(OC(=O)/C(C)=C/C)C(OC(=O)/C(C)=C/C)C3O)C(O)C2O)C(O)C(O)C1OC1OC(CO)C(OC(=O)/C(C)=C/C)C(OC(=O)/C(C)=C/C)C1O (stereo not given) | -4.1 | 2.42 | 0.526 | -7.24 | 4.28
2 | Cc1ccc(NC(=O)Cn2nc3n(CCC(C)C)c(=O)c4ccccc4n3c2=O)cc1C | 2.46 | 0 | 9.48 | 4.86 | 3.31
3 | Cc1ccc2n1CCN(C(=O)NCCc1ccccc1)C2C(C)C (stereo not given) | -4.75 | 1.78 | -17 | -11.7 | -11.3
4 | Cc1ccc(C)c(Cn2nc3n(CCC(C)C)c(=O)c4ccccc4n3c2=O)c1 | 2.8 | 3.92 | 5.29 | 0.246 | 0.748
5 | Cc1ccc(C(=O)O)c2c1N[C@H](c1cccc(Cl)c1)C1CC=CC21 (stereo not given in full) | -53.3 | 0.697 | -3.88 | -9.66 | -1.92
6 | OC[C@H]1CCN(c2ccnc3c(C(F)(F)F)cccc23)C[C@H]1O | 0.345 | -1.21 | 0.673 | -2.38 | 4.17
7 | COc1ccc(CNc2nc3c(-c4ccc(Cl)cc4)nnn3c3ccccc23)cc1 | -2.06 | 2.7 | 1.91 | -1.26 | -1.49
8 | CN(C)[C@@H]1CN(C(=O)c2cc3ccccc3[nH]2)CC[C@@H]1CO | -0.279 | 6.01 | 1.33 | 1.18 | -7.3
9 | Cc1cc(F)ccc1NS(=O)(=O)c1ccc2[nH]c(=O)[nH]c2c1 | 2.24 | 0 | 4.36 | -2.94 | -6.61
10 | O=C(NS(=O)(=O)c1ccc(Br)s1)c1ccc(Cl)cc1Cl | -4.7 | -5.7 | 2.54 | -19.3 | -8.07
11 | CCCn1c(=O)c2ccc(C(=O)NC3CCCCC3)cc2n2c(=O)n(Cc3cccc(Cl)c3)nc12 | 4.82 | 0 | 7.46 | 3.32 | 5.95
12 | CN(C/C=C/c1ccccc1)C(=O)C1CCC(=O)N(Cc2cccc(F)c2)C1 (stereo not given) | -0.539 | -0.094 | 1.76 | -1.09 | 0.345
13 | C=C(C)C(=O)O[C@H]1/C(C=O)=C\CC/C(CO)=C/[C@H]2OC(=O)C(=C)[C@@H]2[C@@H]1OC | 0 | -12.9 | 0.631 | -24.5 | -1.34
14 | COc1ccccc1CNC(=O)Cn1c(=O)oc2cc(S(=O)(=O)NCc3ccccc3)ccc21 | 12.9 | 1.63 | 11.3 | 1.53 | 10.8
15 | CC(C)c1ccc2c(c1)[C@H](O)CC1[C@@](C)(C(=O)O)CCC[C@]21C (stereo not given in full) | -4.38 | 4.79 | 5.82 | -6.58 | -1.83
16 | CC1=CC(=O)CC(C)(C)[C@@]1(O)CC[C@@H](C)O[C@@H]1O[C@H](CO)[C@@H](O)[C@H](O)[C@H]1O | -7.68 | -2.25 | 2.94 | -11.6 | -10.8
17 | COc1cc(OC)cc(-c2nc(-c3ccc(S(=O)(=O)N4CCC(C)CC4)cc3)no2)c1 | -2.93 | 1.07 | 0.967 | -1.56 | 0.458
18 | CC(C)(C)c1cc2n(n1)CC(C)(C(=O)NC1CCCCC1)N(Cc1ccccc1)C2=O (stereo not given) | -2.06 | -10.3 | 5.85 | -8.23 | -3.06
